Measured values published in ChEMBL document CHEMBL1201862, “PubChem BioAssay data set” (2004).

Test system: NCI-H322M
Test: inhibition of tumour cell growth, NCI panel, 48 h

| SMILES | GI50 |
| --- | --- |
| CC(C)(C)O/N=C/c1cc(NC(=S)c2ccccc2)ccc1Cl | inactive: 25.3 µM |
| CC1=NN(C(=O)c2ccccc2O)C(=O)/C1=C/c1ccc([N+](=O)[O-])cc1 | inactive: 1.39 µM |
| COc1ccc(OC)c(/C=N/N=C(\N)NO)c1 | inactive: 9.86 µM |
| COC(=O)C1CCC(=S)N1C(=O)c1ccccc1 (stereo not drawn) | inactive: 12.2 µM |
| O=C(c1cc(Br)ccc1O)c1cc(Br)ccc1O | inactive: 17 µM |
| c1ccc(C(c2ccccc2)c2ccncc2)cc1 | inactive: 60.5 µM |
| COC(=O)C(=O)C(C(=O)C(=O)Nc1cc(C)ccc1C)c1nc2ccccc2nc1O (stereo not drawn) | inactive: > 100 µM |
| COc1oc(C(=O)NC2CCCCC2)c(-c2ccc(Cl)cc2)c1S(=O)(=O)c1ccccc1 | inactive: > 100 µM |
| COC(=O)[C@@H]1C[C@]2(Br)c3ccccc3N(S(=O)(=O)c3ccccc3)[C@@H]2N1C(=O)OC | inactive: > 100 µM |
| CC(=O)c1[nH]c(NC(C)C)c(C(=S)Nc2ccccc2)c1N | inactive: 51.4 µM |
| COC(=O)/C=C(\C)CC(O)/C=C(\C)CCC=C(C)C (stereo not drawn) | inactive: > 100 µM |
| COc1cc2cc(c1Cl)N(C)C(=O)C[C@H](OC(=O)[C@H](C)N(C)C(C)=O)[C@]1(C)O[C@H]1[C@H](C)[C@@H]1C[C@@](O)(NC(=O)O1)[C@H](OC)/C=C/C=C(/C)C2 | active: 0.0236 µM |
| Nc1nc(-c2ccco2)cc(-c2ccco2)n1 | inactive: 98.9 µM |
| Cc1cc(N(CCCCl)CCCCl)ccc1/C=N/c1cccc(Cl)c1 | inactive: 19.1 µM |
| [N-]=[N+]=CC(=O)C1CCCN1C(=O)c1ccccc1 (stereo not drawn) | inactive: > 10 µM |
| CC(=O)O/N=C1\C=Cc2c(no[n+]2[O-])C1=O | inactive: 23.1 µM |
| CCC1(CC)C(=O)CC[C@@]2(C)C1=CC[C@H]1[C@@H]3CC[C@H](O)[C@@]3(C)CC[C@@H]12 | inactive: 78.2 µM |
| CC(CNCCCNCCNCCCNCO)[N+](=O)[O-] (stereo not drawn) | inactive: > 100 µM |
| O=C(OCc1ccccc1)N1CCCc2c(n(S(=O)(=O)c3ccccc3)c3ccccc23)C1 | inactive: > 100 µM |
| Cn1c(NNc2ccccc2)cc(=O)[nH]c1=O | inactive: > 100 µM |
| O=C1NC(=S)NC(=O)C1C(c1ccc(Cl)cc1)C1C(=O)NC(=S)NC1=O.c1ccncc1 | inactive: > 100 µM |
| CN(C=O)/C=C/c1cc(O)ccc1O | inactive: > 100 µM |

| SMILES | GI50 |
| --- | --- |
| O=[N+]([O-])c1cccc2nc3ccccc3c(NCCCN3CCCCC3)c12 | active: < 0.0143 µM |
| COC1(C)CCC(OS(C)(=O)=O)CO1 (stereo not drawn) | inactive: > 100 µM |
| COc1ccc2c(c1)c1c3n2CCNN=C3CCC1 | inactive: > 87.9 µM |
| CCOC(=O)C1S/C(=N\c2ccc(Cl)c(Cl)c2)N=C1C (stereo not drawn) | inactive: 55.1 µM |
| CCc1cc2c(c3c1CCCC3=O)CC1(C2)Cc2cc(CC)c3c(c2C1)C(=O)CCC3 | inactive: > 100 µM |
| CC[C@H](C)[C@H](NC(=O)N(CCC#N)CCN(CCN(C(=O)N[C@@H](Cc1ccccc1)C(=O)OC)c1ccccc1)C(=O)N[C@H](C(=O)OC)C(C)C)C(=O)OC | inactive: 18.7 µM |
| O=C(NC1=NC2C=CC([N+](=O)[O-])=CC2S1)C(=O)Nn1c(S)nc2ccccc2c1=O (stereo not drawn) | inactive: 45.4 µM |
| COc1ccc(N2C(=O)CC(=O)N(NC(=O)C(C)Oc3ccccc3C)C2=S)cc1 (stereo not drawn) | inactive: > 100 µM |
| [N-]=[N+]=Nc1ccc2c(c1)Sc1ccccc1N2CCCCCl | inactive: > 100 µM |
| Fc1cc2nc3n(c2cc1F)C(c1c(Cl)cccc1Cl)SC3 (stereo not drawn) | inactive: 20.8 µM |
| N#CN=C(N(Cc1ccccc1)Cc1ccccc1)N(Cc1ccccc1)Cc1ccccc1 | inactive: > 100 µM |
| COc1cc2c(cc1O)c(O)cc1c3cc(OC)c(OC)cc3c[n+](C)c21 | inactive: 39.4 µM |
| NC1=Nc2ccccc2Sc2cccc(F)c21 | inactive: > 100 µM |
| N#CCCN(CCC#N)c1ccc(/C=C2\N=C(c3ccccc3)N(c3ccc(F)cc3)C2=O)cc1 | inactive: > 100 µM |
| COc1nc(C)nc2sc3c(c12)CCCC3 | inactive: > 100 µM |
| O=c1[nH]cnc2c1nnn2C1C=C(CO)C(O)C1O (stereo not drawn) | inactive: > 100 µM |
| O=C1C(Cl)=C(N2CCC[C@@H]2CO)C(=O)c2c(O)ccc(O)c21 | active: 0.366 µM |
| CC(NC(=O)C(OC(=O)C(C)NC(=O)OC(C)(C)C)C(C)C)C(=O)OC(C(=O)O)C(C)C (stereo not drawn) | inactive: > 100 µM |
| CC(CO)[C@H]1OC(=O)C=C2[C@@]13O[C@@H]3[C@H]1OC(=O)[C@@]3(C)[C@H]4O[C@H]4C[C@@]2(C)[C@@H]13 (stereo partly drawn) | inactive: 1.82 µM |
| CC(=O)c1ccc(Oc2ccc(/C(C)=N\N=C(N)N)cc2)cc1 | inactive: 3.96 µM |
| Oc1ccc(-c2c3ccccc3c(-c3ccc(O)cc3)c3ccccc23)cc1 | inactive: > 100 µM |
| COCC(C)(C)/N=C/N1Cc2cc3ccccc3nc2C1 | inactive: > 100 µM |

| SMILES | GI50 |
| --- | --- |
| CC(C)(Oc1ccccc1)C(=O)Sc1c(-c2ccccc2)c(=O)n(-c2ccccc2)c(=S)n1-c1ccccc1 | inactive: 16.6 µM |
| COc1ccc(C(OCC2OC(n3cc(C)c(=O)[nH]c3=O)CC2n2cc(Cn3cc(I)c(=O)[nH]c3=O)nn2)(c2ccccc2)c2ccccc2)cc1 (stereo not drawn) | inactive: > 100 µM |
| C=C1CC[C@@]2(C)[C@@H]([C@@H]1C)[C@H]1CC[C@@H]3[C@@]4(C)CC[C@H](O)C(C)(C)[C@@H]4CC[C@@]3(C)[C@]1(C)C[C@@H]2O | inactive: 2.4 µM |
| c1ccc(-c2nnn(CCN3CCCCC3)n2)cc1 | inactive: > 100 µM |
| Cc1cc(=O)oc2cc(OC(=O)N(CCCl)CCCl)ccc12 | inactive: > 100 µM |
| CCC(/C=C/C1OC(=O)C=CC1C)=C\C(C)C/C=C/C(C)=C/C(C)C(=O)C(C)C(O)C(C)C/C(C)=C/C(=O)O (stereo not drawn) | inactive: 2.92 µM |
| CCOc1ccccc1/N=C(/NC(=O)CC)SC | inactive: > 10 µM |
| CCOC(=O)c1cccc(/N=N/c2ncc(/C=C/C(=O)OC)[nH]2)c1 | inactive: 20.6 µM |
| COC(=O)c1oc([N+](=O)[O-])c(-c2ccccc2)c1-c1ccccc1 | inactive: 52.7 µM |
| CC(C)=CCN1CC(C)C(=O)Nc2cc(Cl)ccc21 (stereo not drawn) | inactive: 25.9 µM |
| CN(C)c1ccc(/C=C2\C[C@H]3[C@@H]4CC=C5C[C@@H](N6CCCC6)CC[C@]5(C)[C@H]4CC[C@]3(C)[C@H]2O)cc1 | inactive: 1.87 µM |
| OCCCOC(c1ccccc1)(c1ccccc1)c1ccccc1 | inactive: > 100 µM |
| COc1ccc(OC)c(NCC#N)c1 | inactive: > 100 µM |
| Cc1c2c(cc3c1[nH]c1ccccc13)C(c1ccc(Cl)cc1)=NCC2 | active: 0.291 µM |
| O=C1c2c(Cl)c(Cl)c(Cl)c(Cl)c2C(=O)N1CCN(c1c(Cl)ssc1=O)c1c(Cl)ssc1=O | inactive: > 100 µM |
| NC(=O)NC1C(c2ccccc2)=C1c1ccccc1 | inactive: 19.9 µM |
| CN(C)C(=S)N/N=C\C(=N/NC(=S)N(C)C)c1ccccc1 | inactive: 4.38 µM |
| CO/N=C1\CC(C)N2C(=O)C(C(C)C)NC(=O)C(NC(=O)c3c4nc5c(C(=O)NC6C(=O)NC(C(C)C)C(=O)N7C(C)CC(O)C7C(=O)N(C)CC(=O)N(C)C(C(C)C)C(=O)OC6C)ccc(C)c5oc-4c(C)c(=O)c3N)C(CO)OC(=O)C(C)N(C)C(=O)CN(C)C(=O)C12 (stereo not drawn) | active: 1.05 µM |
| CN(C)c1ccc(/C=c2/c3ccccc3n3c2cc(/C=C/c2ccccc2)[n+]3C)cc1 | active: 0.306 µM |
| CCOc1ccc2c(c1)c(CC(=O)O)cn2C | inactive: > 100 µM |
| CC1=C(C)C(=O)c2c(cc3ccc4ccccc4n23)C1=O | inactive: > 100 µM |
| CC1CC(=O)C(C(O)CC2CC(=O)N(c3ccccc3)C(=O)C2)C(C)C1 (stereo not drawn) | inactive: > 100 µM |

| SMILES | GI50 |
| --- | --- |
| CCOC(=O)c1ccc(/N=c2\oc3ccc(OC)cc3cc2-c2nc3ccccc3[nH]2)cc1 | inactive: 45.3 µM |
| N=C1/C(=C/c2ccccc2)C(=O)N=C2SC=NN12 | inactive: > 100 µM |
| O=C(N/N=C/c1ccc(Br)cc1)N/N=C/c1ccc(Br)cc1 | inactive: 5.68 µM |
| CCOc1ccc(NC(=O)/C(=C\c2ccc(C)cc2)C(C)=O)cc1 | inactive: > 100 µM |
| CCOC(=O)CSc1cc[nH]c(=O)n1 | inactive: > 100 µM |
| NNC(=O)CCC(=O)Nc1cc(Cl)c(Cl)cc1Cl | inactive: > 100 µM |
| CCc1c(O)cc(=O)oc1-c1ccc(OC)c(OC)c1 | inactive: > 100 µM |
| CC(=O)OC1CC2C(C)(C)C(=O)C=CC2(C)C2CCC3(C)C(c4ccoc4)OC(=O)C4OC43C12C (stereo not drawn) | inactive: 7.33 µM |
| O=[N+]([O-])/C=C/c1cc(Cl)c(/C=C/[N+](=O)[O-])cc1Cl | inactive: 15.2 µM |
| Cn1nc2n(c1=O)CCCN2 | inactive: > 100 µM |
| O=C1CC(C2(O)C(=O)Nc3ccc([N+](=O)[O-])cc32)c2ccccc21 (stereo not drawn) | inactive: 46.2 µM |
| C[C@@H]1CCC2[C@@H](C)[C@@H](O[C@H]3O[C@@H]4O[C@@]5(C)CCC6[C@H](C)CCC([C@H]3C)[C@]64OO5)O[C@@H]3O[C@@]4(C)CCC1[C@@]23OO4 (stereo partly drawn) | inactive: > 25 µM |
| CCCCCC(/C=C/C1CCC(=O)C1CC#C[Si](C)(C)C)OCc1ccccc1 (stereo not drawn) | inactive: 28.8 µM |
| C#CC(O)/C=C/C(O)CCCC(O)CC#CC(O)C#CC(O)CCCC(O)/C=C/CCCC(=O)CCCCCCCCCCCCCCCC(O)C(O)C#CC(=O)O (stereo not drawn) | inactive: > 50 µM |
| CCCCc1c2c(nc3c1CCc1cc(C=O)c(N)nc1-3)/C(=C/c1ccccc1)CCC2 | inactive: > 100 µM |
| Cc1cc(O)nc(CNC(=O)c2cccc3ccccc23)n1 | inactive: > 100 µM |
| Cc1c(Cl)ccc2c(=O)c3cccc(CC(=O)O)c3oc12 | inactive: > 100 µM |
| CN1C(=O)C2C3C=C4c5ccccc5N(c5ccccc5)C4(C2C1=O)[C@H]1C(=O)N(C)C(=O)[C@@H]31 (stereo partly drawn) | inactive: > 100 µM |
| Cc1ccc(/C=C2\CN(C)CC3C2=NN(c2ccccc2)C3c2ccc(C)cc2)cc1 (stereo not drawn) | inactive: > 100 µM |
| CCCNC(=O)CCC(C)[C@H]1CCC2C3C(C[C@H](OC(C)=O)[C@@]21C)[C@@]1(C)CCC2(C[C@H]1C[C@H]3OC(C)=O)OOC1(CCCCC1)OO2 (stereo partly drawn) | inactive: 12.5 µM |
| COc1ccc(-c2nnc(-c3nsc4ccccc34)o2)cc1 | inactive: > 100 µM |
| COc1cccc2c1NC(=O)Cc1c-2[nH]c2ccccc12 | inactive: > 100 µM |

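Protocol summary: plate cells (96-well), add compound at 5 concentrations, incubate 48 h, interpolate endpoints linearly. The concentration for 50% growth inhibition is given as GI50.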 Activity calls are given as the source filed them. Cut-off read from the data, not from the text of the source: active = GI50 up to about 1.1 µM and inactive = higher.
